Data taken from the RNAGym collection of RNA variant scans (doi:10.7554/elife.90254).
The source gives no read counts; variants with many changes may rest on few reads.

B1: OR4K15 (parent)
chain: GUUAACGGUCAUAGGCCAUGGAAACUAGGAGCACCAUUUCGCUGCCAGUGAAGAAAUGAACAAAGAAAAUCUGGGCCAGGCAGGCAUCAAAAGAAAUAGUCUUGCGCUCAACCAGAAAGUCUGUAAUCAUUUUAAGGGUA

Variants of: B1
Experiment: self-cleavage, relative activity (ratio to wild type); higher = more cleavage; in vitro, sequencing; the parent is a self-cleaving ribozyme

Variant	self-cleavage
GUUAACAGUCAUAGGCCAUGGAAAUUAGGAGCACCAUUUCGCUGCCAGUGAAGAGGUGAACAAAGAAAAUCUGGGCCAGGCAGGCAUCAAAAGAAAUAGUCUUGCGCUCAGCCAGAAAGUCUGUAAUCAUUUUAAGGGUA [G7A C25U A55G A56G A111G]	0.12
GUUAACAGUCAUAGGCCAUGGAAACUAGGAGCACCAUUUCGCUGCCAGCGAAGAAAUGAACAAAGAAAAUCUGGGCCAGGCAGGCAUCAAAAGAAAUAGUCUUGCGCUCAGCCAGAAAGUCCGUAAUCAUUUUAAGGGUA [G7A U49C A111G U122C]	0.02
GUUAACAGUCAUAGGCCAUGGAAACUAGGAGCACCAUUUCGCUGCCAGUGAGGAAAUGGACAGAGAAAAUCUGGGCCAGGCAGGCAUCAAAAGAAAUAGUCUUGCGCUCAACCAGUAAGUCUGUAAUCAUUUUAAGGGUA [G7A A52G A59G A63G A116U]	0.33
GUUAACAGUCAUAGGCCAUGGAAACUAGGAGCACCAUUUCGCUGCCAGUGAAGAAAUGAACAAAGAAAAUCUGGGCCAGGCAGGCAUCAAAAGAAAUAGUCUUGCGCUCAACCAGAAGGUCCGUAAUCAUUUUAAGGGUA [G7A A118G U122C]	0.6
GUUAACAGUCACAGGCCAUGGAAACUAGGAGCACCAUUUCGCUGCCAGUGAAGGAAUGAACAAAGAAAAUCUGGGCCAGGCAGGCAUCAAAGGAAAUAGUCUUGCGCUCAACCAGAAAGUCUGUAAUCAUUUUAAGGGUA [G7A U12C A54G A92G]	1.92
GUUAACAGUCAUAGGCCAUGGAAACUAGGAGCACCAUUUCGCUGCCAGUGAAGAAAUGAACAAAGAAAAUCUGGGCCAGGCGGGCAUCAAAAGAAAUAGUCUUGCGCUCAGCCAGAAAGUCUGUAAUCAUUUUAAGGGUA [G7A A82G A111G]	0.01
GUUAACAGUCACAGGCCAUGGAAACUAGGAGCACAAUUUCGCUGCCAGUGAAGAAAUGAACAAAGAAUAUCUGGGCCAGGCAGGCAUCAAAAGAAAUAGUCUCGCGCUCAGCCAGAAAGUCUGUAAUCAUUUUAAGGGUA [G7A U12C C35A A68U U103C A111G]	0.04
GUUAACAGUCAUAGGCCAUGGAAACUAGGAGCGCCAUUUCGCUGCCAGUGAAGAAAUGAACGAAGAAAUUCUGGGCCAGGCAGGCAUCAAAAGAAAUAGUCUUGCGCUCAACCUGAAAGUCUGUAAUCAUUUUAAGGGUA [G7A A33G A62G A69U A114U]	0.09
GUUAACAGUCAUAGGCCAUGGAAACUAGGAGCACCAUUUCGCUGCCAGUGAAGGAAUGAACAUAGAAAAUCUGGGCCAGGCAGGCAUCAAAAGAAAUAGUCUUGCGCUCAACCAGAAAGUCUGUAAUCAUUUUAAGGGUA [G7A A54G A63U]	1.57
GUUAACAGUCAUAGGCCACGGAAACUGGGAGCACCAUUUCGCUGCCAGUGAAGAAAUGAACAAAGAAAAUCUGGGCCAGGCAGGCAUCAAAAGAAAUAGUCUUGCGCUCAACCAGAAAGUCUGUAAUCAUUUUAAGGGUA [G7A U19C A27G]	1.15
GUUAACAGUCAUAGGCCAUGGAAACUAGGAGCACCAUUUCGCUGCCAGUGAAGAAAUGAACAAAGAAGAUCUGGGCCAGGCAGGCAUCAAAAGGAAUAGCCUUGCGCUCAACCAGAAAGUCUGUAAUCGUUUUAAGGGUA [G7A A68G A94G U100C A129G]	2.37
GUUAACAGUCAUAGGUCAUGGAAACUAGGAGCACCAUUUCGCUGCCAGUGAAGAAAUGAACAAGGAAAAUCUGGGCCAGGCAGGCAUCAAAAGAAAUAGUCUUGCGCUCAACCAGAAAGUCUGUAACCAUUUUAAGGGUA [G7A C16U A64G U127C]	0.88
GUUAACAGUCAUAGGCCAUGGAAACUAGGAGCACCAUCUCGCUGCCAGUGAAGAAAUGUACAAAGAAAAUCUGGGCCAGGCAGGCAUCAAAAGAAAUAGUCUUGCGCUCAACCAGAAAGUCUGUAAUCAUUCUAAGGGUA [G7A U38C A59U U132C]	0.37
GUUAACAGUCAUAGGCCAUGGAAACUAGGAGCACAAUUUCGCUGCCAGUGAAGAAAUGAACAAAGAAAAUCUGGGCCAGGCAGGCAUCAAAAGAAAUAGUCUUGCGCUCAACCGGAAAGUCUGUAAUCAUUUUAAGGGUA [G7A C35A A114G]	0.36
GUUAACAGUCAUAGGCCAUGGAAACUAGGAGCGCCAUUUCGCUGCCAGUGAAGAAAUGAACAAAGAAAAUCUGGGCCAGGCGGGCAUCAAAAGAAAUAGUCUUGCGCUCAACCAGAAAGUCUGUAAUCAUUUUAAGGGUA [G7A A33G A82G]	0.12
GUUAACAGCCGUAGGCCAUGGAAACUAGGAGCACCAUUUCGCUGCCAGUGUAGAAGUGAACAAAGAAAAUCUGGGCCAGGCAGGCAUCAAAAGAAAUAGUCUUGCGCUCAACCAGAAAGUCUGUAAUCAUUUUAAGGGUA [G7A U9C A11G A51U A56G]	0.51
GUUAACAGUCAUAGGCCAUGGAAACUAGGAGCACCAUUCCGCUGCCAGUGAAGAAAUGAACAAAGGAAAUCUGGGCCAGGCAGGCAUCAAAAGGAAUAGUCUUGGGCUCAACCAGAAAGUCUGUAAUCAUUCUAAGGGUA [G7A U39C A66G A94G C105G U132C]	0
GUUAACAGUCAUAGGCCAUGGAAACUAGGAGCACCAUUUCGCUGCCAGUGAGGAAAUGAACAAAGAAAAUCUGGGCCAGGCAGGCAACAAAAGAAAUAGUCUUGCGCUCAACCAGAAAGUCUGUAAUCAUUUUAAGGGUA [G7A A52G U87A]	1.05
GUUAACAGUCAUAGGCCAUGGAAGCUAGGAGCACCAUCUCGCUGCCAGUGAAGAAAUGAACAAAGAAAAUCUGGGCCAGGCAGGCAUCAAAAGAAAUAGUCUUGCGCUCAACCAGAAAGUCCGUAAUCAUUUUAAGGGUA [G7A A24G U38C U122C]	1.15
GUUAACAGUCAUAGGCCAUGGAAACUAGGAGCACCAUUUCGCUGCCAGUGAAGAAAUGAACAAAGGAAAUCUGGGCCAGGCAGGCAUCAAAAGAGAUAGUCUUGCGCUCAACCAGAAAGUCUGUAAUCAUUUCAAGGGUA [G7A A66G A95G U133C]	1.36
GUUAACAGUCAUAGGCCAUGGAAACCAGGAGCACCAUUUCGCAGCCAGUGAAGAAAUGAACAAAGAAAAUCUGGGCCAGGCAGGCAUCAAAAGAAAUAGUCUUGCGCUCAACCAGAAAGUCUGUAAUCAUUUUAAGGGUA [G7A U26C U43A]	1.9

Variant	self-cleavage
GUUAACAGUCAUAGGCCAUGGAAACUAGGAGCACCAUUCCGCUGCCAGUGAAGAAAUGAACAAAGAAAAUCUGGGCCAGGCUGGCAUCAAAAGAAAUAGUCUUGCGCUCAACCAGAAAGUCUGUAAUCAUUUUAAGGGUA [G7A U39C A82U]	0.36
GUUAACAGUCAUAGGCUAUGGGAACUAGGAGCACCAUUUCGCUUCCAGUGAAGAAAUGGACAGAGAAAAUCUGGGCCAGGCCGGCGUCAAAAGAAAUAGUCUUGCGCUCAACCAGAAAGUCUGUAAUCAUUUUAAGGGUA [G7A C17U A22G G44U A59G A63G A82C A86G]	0.19
GUUAACAGUCAUAGGCCAUGGAAACUAGGAGCACCAUUUCGCUGCCAGUGAUGAAAUGAACAAAGAAAAUCUGGGCCAGGCAGGCAUCAGAAGAAAUAGUCUUGCGCUCAACCAGAAAGUCUGUAAUCAUUUUAAGGGUA [G7A A52U A90G]	2.01
GUUAACAGUCAUAGGCCAUGGAAACUAGGAGCACAAUUUCGCUGCCAGUGAAGAAAUGAACAAAGAAAAUCUGGGCCAGGCAGGCAUCUAAAGAAAUAGUCUUGCGCACAACCAGAAAGUCCGUAAUCAUUUUAAGGGUA [G7A C35A A89U U108A U122C]	0
GUUAACAGUCAUAGGCCAAGGAAACUAGGAGCACCAUUUCGCUGCCAGUGAAGAAAUGAGCAAAGAAAAUCUGGGCCAGGCAGGCAUCGGAAGAGAUAGUCUUGCGCUCAACCAGAAGGUCUGUAAUCAUUUUAAGGGUA [G7A U19A A60G A89G A90G A95G A118G]	0.52
GUUAACAGUCAUAGGCCAUGGAAACUAGGAGCACCAUUUCGCUGCCAGUGAAGAAAUGAACAAAGAAAAUCUGGGCCAGGCAGGCAUCAAAAGAAAUAGUCUUGCGCUCAGCCAGAAAGUCUGUAUUCAUUUUAAGGGUA [G7A A111G A126U]	0.01
GUUAACAGUCAUAGGCCAUGGAAACUAGGAGCACCAUUUCGCUGCCAGUGAAGAAAUGAACAAAGAGAAUCUGGGCCAGGCAGGCAUCAAAAGAAAUAGCCUUGCGCUCAACCAGAAAGUCUGUAAUCAUUUUAAGGGUA [G7A A67G U100C]	2.24
GUUAACAGUCAUAGGCCAUGGAAACUAGGAGCACCAUUUCGCUGCCAGUGAAGAAGUGAACAAAGAAAAUCUGGGCCAGGCAGGCAUCAAAAGAAGUAGUCUUGCGCUCAACCAGAAAGUCUGUAAUCAUUUUAAGGGUA [G7A A56G A96G]	1.65
GUUAACAGUCAUAGGCAAUGGAAACUAGGAGCACCAUUUCGCUGCCAGUGAAGAAAUGAACAAGGAAAAUCUGGGCCAGGCAGGCAUCAAAAGAAAUAGUCUUGCGCUCAACCAGAAAGUCUGUAAUCAUUUUAAGGGUA [G7A C17A A64G]	1.76
GUUAACAGCCCUAGGCCAUGGAAACUAGGAGCACCAUUUCGCUGCCAGUGAAGAAAUGAACAAAGAACAUCUGGGCCAGGCAGGCAUCAAAAGAAAUAGUCAUGCGCUCAACCAGAAAGUCUGUAAUCAUUUUAAGGGUA [G7A U9C A11C A68C U102A]	1.17
GUUAACAGUCAUAGGCCAUGGAAACUAGGAGCACCAUUUCGCCGCCAGUGACGAAAUGAACAAAGAAAAUCUGGGCCAGGCAGGCAUCAGAGGAAAUAGUCUUGCGCUCAACCAGAAAGUCUGUAACCAUUUUAAGGGUA [G7A U43C A52C A90G A92G U127C]	0.4
GUUAACAGUCAUAGGCCAUGGAAACUAGGGGCACCAUUUCGCUGCCAGUGAAGAAAUGAACAAAGAAGAUCUGGGCCAGGCAGGCAUCAAAAGAAAUAGUCUUGCGCUCAACCAGAAAGUCUGUAAUCAUUUUAAGGGUA [G7A A30G A68G]	1.33
GUUAACAGUCAUAGGCCAUGGAAACUAGGAACACCAUUUCGCUGCCAGUGAAGAAAUGAACAAAGAAAGUCUGGGCCAGGCAGGCAUCAAAAGAAAUAGUCUUGCGCUCAACCAGAAAGUCUGUAAACAUUUUAAGGGUA [G7A G31A A69G U127A]	1.72
GUUAACAGUCAUAGGCCAUGGAAACUAGGAGCACCAUUUCGCUGCCAGUGAAGAAGAGAACAAAGAAAAUCUGGGCCAGGCAGGCAUCAAAAGAAAUAGUCUCGCGCUCAACCAGAAAGUCUGUAGUCAUUUUAAGGGUA [G7A A56G U57A U103C A126G]	0.32
GUUAACAGUCAUAGGCCAUGGAAACUAGGAGCACCAUUCCGCUGCCAGUGAAGAAAUGAACAAAGAAAAUCUGGGCCAGGCAGGCAUCAGAAGAAAUAGUCUUGCGCUCAACCAGAAAGUCUGUAAUCAUUUUAAGGGUA [G7A U39C A90G]	0.42
GUUAACAGUCAUAGGCCAUGGAAACUAGGAGCACCAUUUCGCUGCCUGUGAAGAAAUGAACAAAGAAAAUCUGGGCCAGGCAGGCACCAAAAGAAAUAGUCUUGCGCUCUACCAGAAAGUCUGUAAUCAUUUUAAGGGUA [G7A A47U U87C A110U]	0.63
GUUAACAGUCAUAAGCCAUGGAAACUAGGAGCACCAUUUCGCUGCCAGUGAAGAAAUGAACAAAGAAAAUCUGGGCCAGGCAGGCAUCAAAAGAAAUAGUCUCGCGCUCAACCAGAAAGUCUGUAAUCAUUUUAAGGGUA [G7A G14A U103C]	0.49
GUUAACAGUCAUAGGCCAUGGAAACUAGGAGCACCAUUUCGCUGCCAGUGAAGAAAUGAACAAAGAAAAUCUGGGCCAGGCAGGCACCAAAAGAAAUAGUCUUGUGCUCAACCAGAAAGUCUGUAAUCAUUUUAAGGGUA [G7A U87C C105U]	0.1
GUUAACAGUCAUAGGCCAUGGAAACUAGGAGCACCAUUUCGCUGCCAGUGAAGAAAUGAACAAAGAAAAUCUGGGCCAGGCAGGCAUCAAAAGAAAUAAUCUUGCGCUCUACCAGAAAGUCUGUAAUCAUUUUAAGGGUA [G7A G99A A110U]	0.42
GUUAACAGUCAUAGGCCAUGGAAACUAGGAGCACCAUUUCGCUGCCAGUGAAGAAAUGAACAAAGAAAAUCUGGGCCAGGCAGGCAUCUAAAGAAAUAGUCUUGCGCUCAACCAGAAAGUCUGGAAUCAUUUUAAGGGUA [G7A A89U U124G]	0.92
